Assay results reported in US20220389394A1 (Gilead, published 2022).
Like-named read-outs stand apart in the source and are kept apart here.

B1: human FLT3-ligand human IgG4 (S228P/L235E) fusion protein (SEQ ID NO:3) (Fc fusion)
chain: TQDCSFQHSPISSDFAVKIRELSDYLLQDYPVTVASNLQDEELCGGLWRLVLAQRWMERLKTVAGSKMQGLLERVNTEIHFVTKCAFQPPPSCLRFVQTNISRLLQETSEQLVALKPWITRQNFSRCLELQCQPDSSTLPPPWSPRPLEATAPTAPQ[human IgG4 Fc with changes not printed]
notes: also called FLT3L ECD - hG4 S228P/L235E
B2: human FLT3-ligand human IgG4 (S228P/F234A/L235A) fusion protein (SEQ ID NO:4) (Fc fusion)
chain: TQDCSFQHSPISSDFAVKIRELSDYLLQDYPVTVASNLQDEELCGGLWRLVLAQRWMERLKTVAGSKMQGLLERVNTEIHFVTKCAFQPPPSCLRFVQTNISRLLQETSEQLVALKPWITRQNFSRCLELQCQPDSSTLPPPWSPRPLEATAPTAPQ[human IgG4 Fc with S228P F234A L235A (EU numbers) not printed]
notes: also called FLT3L ECD - hG4 S228P/F234A/L235A
B3: human FLT3-ligand (Δ5 amino acid) human IgG4 (S228P/F234A/L235A) fusion protein (SEQ ID NO:6) (Fc fusion)
chain: TQDCSFQHSPISSDFAVKIRELSDYLLQDYPVTVASNLQDEELCGGLWRLVLAQRWMERLKTVAGSKMQGLLERVNTEIHFVTKCAFQPPPSCLRFVQTNISRLLQETSEQLVALKPWITRQNFSRCLELQCQPDSSTLPPPWSPRPLEATA[human IgG4 Fc with S228P F234A L235A (EU numbers) not printed]
notes: also called FLT3L (Δ C-term 5aa (PTAPQ)) - hG4 S228P/F234A/L235A
B4: human FLT3-ligand (Δ10 amino acid) human IgG4 (S228P/F234A/L235A) fusion protein (SEQ ID NO:8) (Fc fusion)
chain: TQDCSFQHSPISSDFAVKIRELSDYLLQDYPVTVASNLQDEELCGGLWRLVLAQRWMERLKTVAGSKMQGLLERVNTEIHFVTKCAFQPPPSCLRFVQTNISRLLQETSEQLVALKPWITRQNFSRCLELQCQPDSSTLPPPWSPRP[human IgG4 Fc with S228P F234A L235A (EU numbers) not printed]

Columns and labels:
[1] = molecular target: T1, human FLT3 on the AML5 cell line (human, UniProt P36888 27-993); assay: cell-based or functional assay
T1 sequence (looked up): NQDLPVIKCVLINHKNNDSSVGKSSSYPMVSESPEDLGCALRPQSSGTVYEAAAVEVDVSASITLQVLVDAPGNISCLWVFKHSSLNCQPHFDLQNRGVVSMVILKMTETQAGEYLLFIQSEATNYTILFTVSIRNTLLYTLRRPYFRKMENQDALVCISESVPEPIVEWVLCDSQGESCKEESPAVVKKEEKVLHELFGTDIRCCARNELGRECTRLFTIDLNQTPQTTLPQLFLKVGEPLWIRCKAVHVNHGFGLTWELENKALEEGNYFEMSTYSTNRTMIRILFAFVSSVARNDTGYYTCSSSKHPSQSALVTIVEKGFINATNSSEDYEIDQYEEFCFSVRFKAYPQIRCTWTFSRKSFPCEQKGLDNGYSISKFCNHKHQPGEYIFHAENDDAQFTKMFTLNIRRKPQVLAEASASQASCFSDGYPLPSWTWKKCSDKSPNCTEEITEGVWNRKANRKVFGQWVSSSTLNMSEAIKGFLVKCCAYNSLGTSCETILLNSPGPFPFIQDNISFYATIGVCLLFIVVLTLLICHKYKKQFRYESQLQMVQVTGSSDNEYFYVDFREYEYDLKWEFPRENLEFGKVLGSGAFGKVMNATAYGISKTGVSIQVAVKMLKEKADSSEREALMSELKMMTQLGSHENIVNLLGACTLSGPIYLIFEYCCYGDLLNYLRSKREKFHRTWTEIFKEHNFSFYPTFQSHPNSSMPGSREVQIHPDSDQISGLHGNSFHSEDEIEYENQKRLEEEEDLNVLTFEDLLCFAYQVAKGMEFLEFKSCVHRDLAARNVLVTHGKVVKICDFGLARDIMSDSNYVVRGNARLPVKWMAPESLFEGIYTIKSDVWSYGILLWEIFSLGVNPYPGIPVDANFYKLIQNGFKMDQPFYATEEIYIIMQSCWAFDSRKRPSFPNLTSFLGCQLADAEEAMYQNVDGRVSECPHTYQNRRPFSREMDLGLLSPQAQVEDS

[2] = molecular target: T2, his-tagged recombinant human Flt3 receptor (Sino Biologicals) (human, UniProt P36888 27-541, limits assumed); assay: ELISA; His-tagged recombinant human Flt3 on nickel plate, serially diluted Flt3L-Fc, anti-human (H+L)-HRP, 4PL fit
T2 construct: Bought protein; also called human recombinant FLT3; not shown: His tag
T2 sequence (looked up): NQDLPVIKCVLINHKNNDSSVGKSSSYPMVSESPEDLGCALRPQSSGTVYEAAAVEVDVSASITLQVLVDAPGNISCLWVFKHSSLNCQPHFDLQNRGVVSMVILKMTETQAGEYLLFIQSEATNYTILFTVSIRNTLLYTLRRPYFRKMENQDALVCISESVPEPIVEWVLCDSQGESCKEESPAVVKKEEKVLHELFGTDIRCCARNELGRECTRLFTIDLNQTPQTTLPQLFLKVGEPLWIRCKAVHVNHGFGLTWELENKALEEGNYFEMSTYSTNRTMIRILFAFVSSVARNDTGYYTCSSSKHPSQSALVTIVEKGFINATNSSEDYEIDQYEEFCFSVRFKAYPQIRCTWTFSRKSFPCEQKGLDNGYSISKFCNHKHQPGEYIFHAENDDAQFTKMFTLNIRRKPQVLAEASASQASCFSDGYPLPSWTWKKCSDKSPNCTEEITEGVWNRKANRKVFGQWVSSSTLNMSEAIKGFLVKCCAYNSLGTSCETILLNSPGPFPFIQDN
Excerpt: Graph is a result of one experiment.
(§1) Signal was developed using TMB substrate then quenched prior to reading absorbance at 450 nm on a SpectraMax plate reader.

recombinant human FcRn [3] = molecular target: T3, recombinant human FcRn (human, UniProt P55899 fragment; P61769 fragment, limits assumed); assay: ELISA; recombinant human FcRn coated, serially diluted test article, anti-human (H+L)-HRP, 4PL fit; estimate, no saturating signal
T3 construct: a beta-2-microglobulin chain is not mentioned; also called human recombinant FcRn
Experimental: (§2) Graph is a result of one experiment. Experiment was performed in duplicate. Error bars represent standard deviation of the mean values.
(§3) Signal was developed using TMB substrate then quenched prior to reading absorbance at 450-650 nm on a SpectraMax plate reader.

[4] = molecular target: T4, recombinant human C1q protein (Fitzgerald) (human, UniProt P02745; P02746; P02747, limits assumed); assay: ELISA, test article immobilized, C1q added; text: devoid of C1q binding ability
T4 construct: also called human recombinant complement protein, C1q

[5] = molecular target: T1, human FLT3 on the AML5 cell line; assay: cell-based or functional assay; remark: listed apart in the source
[6] = molecular target: T2, his-tagged recombinant human Flt3 …; assay: ELISA; His-tagged recombinant human Flt3 on nickel plate, serially diluted Flt3L-Fc, anti-human (H+L)-HRP, 4PL fit; remark: listed apart in the source
Experimental: as §2, §1

recombinant human FcRn [7] = molecular target: T3, recombinant human FcRn; assay: ELISA; recombinant human FcRn coated, serially diluted test article, anti-human (H+L)-HRP, 4PL fit
Experimental: as §2, §3

T3 sequence (P55899 24-297 limits assumed, chain 1 of 2): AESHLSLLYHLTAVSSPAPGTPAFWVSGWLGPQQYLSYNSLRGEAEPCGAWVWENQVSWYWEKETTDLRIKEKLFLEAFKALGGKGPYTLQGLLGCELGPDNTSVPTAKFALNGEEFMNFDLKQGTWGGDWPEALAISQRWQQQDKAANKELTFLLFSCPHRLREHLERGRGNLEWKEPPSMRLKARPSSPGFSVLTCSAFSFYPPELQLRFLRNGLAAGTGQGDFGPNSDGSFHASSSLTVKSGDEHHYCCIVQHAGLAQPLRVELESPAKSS
T3 sequence (P61769 21-119 limits assumed, chain 2 of 2, further chain): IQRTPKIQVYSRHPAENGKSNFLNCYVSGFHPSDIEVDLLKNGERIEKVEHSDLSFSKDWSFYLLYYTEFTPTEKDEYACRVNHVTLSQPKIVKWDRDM
T4 sequence (P02745 23-245 limits assumed, chain 1 of 3): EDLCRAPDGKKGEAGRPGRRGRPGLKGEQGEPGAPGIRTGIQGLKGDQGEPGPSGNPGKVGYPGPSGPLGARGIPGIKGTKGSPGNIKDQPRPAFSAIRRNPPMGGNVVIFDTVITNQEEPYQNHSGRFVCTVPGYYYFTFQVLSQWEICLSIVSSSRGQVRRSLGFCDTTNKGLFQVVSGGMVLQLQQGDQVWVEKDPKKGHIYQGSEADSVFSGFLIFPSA
T4 sequence (P02746 28-253 limits assumed, chain 2 of 3, further chain): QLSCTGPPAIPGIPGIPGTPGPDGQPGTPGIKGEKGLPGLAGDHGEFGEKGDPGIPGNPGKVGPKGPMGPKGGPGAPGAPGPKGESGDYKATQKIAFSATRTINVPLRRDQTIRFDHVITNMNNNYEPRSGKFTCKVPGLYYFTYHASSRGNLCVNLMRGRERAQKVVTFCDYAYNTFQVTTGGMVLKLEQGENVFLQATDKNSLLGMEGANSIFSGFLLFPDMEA
T4 sequence (P02747 29-245 limits assumed, chain 3 of 3, further chain): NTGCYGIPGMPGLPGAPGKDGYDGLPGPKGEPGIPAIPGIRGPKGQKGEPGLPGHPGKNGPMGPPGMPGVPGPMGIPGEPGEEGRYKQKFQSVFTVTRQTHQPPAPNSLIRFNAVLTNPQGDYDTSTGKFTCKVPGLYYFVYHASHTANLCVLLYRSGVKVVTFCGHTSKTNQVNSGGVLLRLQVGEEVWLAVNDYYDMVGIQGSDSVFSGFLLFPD

Binder	EC50 (nM), AML5 proliferation [1] [nM]	EC50 [2] [nM]	EC50 (recombinant human FcRn [3]) [nM]	binding result [4]	EC50 (nM), AML5 proliferation [5] [nM]	EC50 [6] [nM]	EC50 (recombinant human FcRn [7]) [nM]
B1	0.088	0.18					
B2	0.073	0.18	~68.8	no binding (tested: 94 nM (highest of the titration))			
B3	0.078	0.22	~136	no binding (tested: 94 nM (highest of the titration))	0.048	0.7	365
B4	0.075	0.2	~140	no binding (tested: 94 nM (highest of the titration))			
